{
  "source": "paper PMC9911399",
  "about": "“Two distinct binding modes provide the RNA-binding protein RbFox with extraordinary sequence specificity”",
  "binders": {"B1": {"name": "GUUGUAA (DNA:RNA)", "RNA": "GGGAGACCGGAAUUCAGAUUGUCCGUUGUAAUUAAAUCCCGUCGUAGCCACCA", "DNA 1": "CAATCTGAATTCCGGTCTCCC", "DNA 2": "TGGTGGCTACGACGGGATT"}, "B2": {"name": "ACAUGCA (DNA:RNA)", "RNA": "B1 RNA with G25A, U26C, U27A, G28U, U29G, A30C", "DNA 1": "CAATCTGAATTCCGGTCTCCC", "DNA 2": "TGGTGGCTACGACGGGATT"}, "B3": {"name": "ACAGUGC (DNA:RNA)", "RNA": "B1 RNA with G25A, U26C, U27A, A30G, A31C", "DNA 1": "CAATCTGAATTCCGGTCTCCC", "DNA 2": "TGGTGGCTACGACGGGATT"}, "B4": {"name": "GUACCUU (DNA:RNA)", "RNA": "B1 RNA with U27A, G28C, U29C, A30U, A31U", "DNA 1": "CAATCTGAATTCCGGTCTCCC", "DNA 2": "TGGTGGCTACGACGGGATT"}, "B5": {"name": "CAUUCCG (DNA:RNA)", "RNA": "B1 RNA with G25C, U26A, G28U, U29C, A30C, A31G", "DNA 1": "CAATCTGAATTCCGGTCTCCC", "DNA 2": "TGGTGGCTACGACGGGATT"}, "B6": {"name": "ACUUCAU (DNA:RNA)", "RNA": "B1 RNA with G25A, U26C, G28U, U29C, A31U", "DNA 1": "CAATCTGAATTCCGGTCTCCC", "DNA 2": "TGGTGGCTACGACGGGATT"}, "B7": {"name": "CCAAUUG (DNA:RNA)", "RNA": "B1 RNA with G25C, U26C, U27A, G28A, A30U, A31G", "DNA 1": "CAATCTGAATTCCGGTCTCCC", "DNA 2": "TGGTGGCTACGACGGGATT"}, "B8": {"name": "UGUGCUC (DNA:RNA)", "RNA": "B1 RNA with G25U, U26G, U29C, A30U, A31C", "DNA 1": "CAATCTGAATTCCGGTCTCCC", "DNA 2": "TGGTGGCTACGACGGGATT"}, "B9": {"name": "GAUAGCU (DNA:RNA)", "RNA": "B1 RNA with U26A, G28A, U29G, A30C, A31U", "DNA 1": "CAATCTGAATTCCGGTCTCCC", "DNA 2": "TGGTGGCTACGACGGGATT"}, "B10": {"name": "AAAGCAU (DNA:RNA)", "RNA": "B1 RNA with G25A, U26A, U27A, U29C, A31U", "DNA 1": "CAATCTGAATTCCGGTCTCCC", "DNA 2": "TGGTGGCTACGACGGGATT"}, "B11": {"name": "ACAUGCG (DNA:RNA)", "RNA": "GGGAGACCGGAAUUCAGAUUGUCCACAUGCGUUAAAUCCCGUCGUAGCCACCA", "DNA 1": "CAATCTGAATTCCGGTCTCCC", "DNA 2": "TGGTGGCTACGACGGGATT"}, "B12": {"name": "GGUGGGC (DNA:RNA)", "RNA": "B1 RNA with U26G, U29G, A30G, A31C", "DNA 1": "CAATCTGAATTCCGGTCTCCC", "DNA 2": "TGGTGGCTACGACGGGATT"}, "B13": {"name": "UAGGUGC (DNA:RNA)", "RNA": "B1 RNA with G25U, U26A, U27G, A30G, A31C", "DNA 1": "CAATCTGAATTCCGGTCTCCC", "DNA 2": "TGGTGGCTACGACGGGATT"}, "B14": {"name": "AUUUACG (DNA:RNA)", "RNA": "B11 RNA with C26U, A27U, G29A", "DNA 1": "CAATCTGAATTCCGGTCTCCC", "DNA 2": "TGGTGGCTACGACGGGATT"}, "B15": {"name": "UCAAUUU (DNA:RNA)", "RNA": "B11 RNA with A25U, U28A, G29U, C30U, G31U", "DNA 1": "CAATCTGAATTCCGGTCTCCC", "DNA 2": "TGGTGGCTACGACGGGATT"}, "B16": {"name": "GACAGAC (DNA:RNA)", "RNA": "B1 RNA with U26A, U27C, G28A, U29G, A31C", "DNA 1": "CAATCTGAATTCCGGTCTCCC", "DNA 2": "TGGTGGCTACGACGGGATT"}, "B17": {"name": "ACGUGAC (DNA:RNA)", "RNA": "B11 RNA with A27G, C30A, G31C", "DNA 1": "CAATCTGAATTCCGGTCTCCC", "DNA 2": "TGGTGGCTACGACGGGATT"}, "B18": {"name": "GCGUCGU (DNA:RNA)", "RNA": "B11 RNA with A25G, A27G, G29C, C30G, G31U", "DNA 1": "CAATCTGAATTCCGGTCTCCC", "DNA 2": "TGGTGGCTACGACGGGATT"}, "B19": {"name": "CCAAAUU (DNA:RNA)", "RNA": "B11 RNA with A25C, U28A, G29A, C30U, G31U", "DNA 1": "CAATCTGAATTCCGGTCTCCC", "DNA 2": "TGGTGGCTACGACGGGATT"}, "B20": {"name": "CCGGUUU (DNA:RNA)", "RNA": "B1 RNA with G25C, U26C, U27G, A30U, A31U", "DNA 1": "CAATCTGAATTCCGGTCTCCC", "DNA 2": "TGGTGGCTACGACGGGATT"}, "B21": {"name": "AGUUAGG (DNA:RNA)", "RNA": "B11 RNA with C26G, A27U, G29A, C30G", "DNA 1": "CAATCTGAATTCCGGTCTCCC", "DNA 2": "TGGTGGCTACGACGGGATT"}, "B22": {"name": "CGGUGUA (DNA:RNA)", "RNA": "B11 RNA with A25C, C26G, A27G, C30U, G31A", "DNA 1": "CAATCTGAATTCCGGTCTCCC", "DNA 2": "TGGTGGCTACGACGGGATT"}, "B23": {"name": "UUUAGAA (DNA:RNA)", "RNA": "B1 RNA with G25U, G28A, U29G", "DNA 1": "CAATCTGAATTCCGGTCTCCC", "DNA 2": "TGGTGGCTACGACGGGATT"}, "B24": {"name": "CCUAUUA (DNA:RNA)", "RNA": "B1 RNA with G25C, U26C, G28A, A30U", "DNA 1": "CAATCTGAATTCCGGTCTCCC", "DNA 2": "TGGTGGCTACGACGGGATT"}, "B25": {"name": "ACGGACC (DNA:RNA)", "RNA": "B11 RNA with A27G, U28G, G29A, G31C", "DNA 1": "CAATCTGAATTCCGGTCTCCC", "DNA 2": "TGGTGGCTACGACGGGATT"}, "B26": {"name": "AUUAUCA (DNA:RNA)", "RNA": "B1 RNA with G25A, G28A, A30C", "DNA 1": "CAATCTGAATTCCGGTCTCCC", "DNA 2": "TGGTGGCTACGACGGGATT"}, "B27": {"name": "CAAGCGA (DNA:RNA)", "RNA": "B1 RNA with G25C, U26A, U27A, U29C, A30G", "DNA 1": "CAATCTGAATTCCGGTCTCCC", "DNA 2": "TGGTGGCTACGACGGGATT"}, "B28": {"name": "UUCUUUU (DNA:RNA)", "RNA": "B1 RNA with G25U, U27C, G28U, A30U, A31U", "DNA 1": "CAATCTGAATTCCGGTCTCCC", "DNA 2": "TGGTGGCTACGACGGGATT"}, "B29": {"name": "CUCGUAU (DNA:RNA)", "RNA": "B1 RNA with G25C, U27C, A31U", "DNA 1": "CAATCTGAATTCCGGTCTCCC", "DNA 2": "TGGTGGCTACGACGGGATT"}, "B30": {"name": "GCCUAAU (DNA:RNA)", "RNA": "B11 RNA with A25G, A27C, G29A, C30A, G31U", "DNA 1": "CAATCTGAATTCCGGTCTCCC", "DNA 2": "TGGTGGCTACGACGGGATT"}, "B31": {"name": "CGACUUU (DNA:RNA)", "RNA": "B11 RNA with A25C, C26G, U28C, G29U, C30U, G31U", "DNA 1": "CAATCTGAATTCCGGTCTCCC", "DNA 2": "TGGTGGCTACGACGGGATT"}},
  "note": "Numbering of substitutions follows the chain as printed; changes in the protein carry UniProt numbers. The list shows a part of the results.",
  "data": [
    {"target": "T1, RBFOX1 RRM (Homo sapiens, UniProt Q9NWB1 109-208)", "T1 sequence": "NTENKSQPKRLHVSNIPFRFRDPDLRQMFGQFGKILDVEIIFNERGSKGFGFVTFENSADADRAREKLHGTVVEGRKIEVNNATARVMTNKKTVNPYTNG", "test": "EMSA; HiTS-Eq, 1 nM pool, 10 min; buffer printed only for the single-RNA assays: 10 mM Tris pH 7.5, 150 mM NaCl, 3.4 mM EDTA, 0.001% NP-40, 30 C", "conditions": "tags: His6 N-terminal (pET28a); label: 5' 32P", "in_short": "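Purified RbFox RRM, wild type or mutant, was incubated for 10 min in 50 µL with 1 nM of a 5′-radiolabelled RNA pool carrying 7 randomized nucleotides, whose flanks were annealed to DNA oligonucleotides, over a series of increasing protein concentrations. Unbound RNA was resolved on 8% native PAGE, cut out, reverse-transcribed, barcoded by PCR and sequenced on an Illumina HiSeq 2500. Relative association constants were derived from changes in read counts for each RNA species versus the control reaction and normalised to the cognate motif.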", "values": [
      {"binder": "B1", "binding signal": "0.0121 KA relative to UGCAUGU"},
      {"binder": "B2", "binding signal": "0.00884 KA relative to UGCAUGU"},
      {"binder": "B3", "binding signal": "0.00827 KA relative to UGCAUGU"},
      {"binder": "B4", "binding signal": "0.00362 KA relative to UGCAUGU"},
      {"binder": "B5", "binding signal": "0.0056 KA relative to UGCAUGU"},
      {"binder": "B6", "binding signal": "0.000497 KA relative to UGCAUGU"},
      {"binder": "B7", "binding signal": "0.00326 KA relative to UGCAUGU"},
      {"binder": "B8", "binding signal": "0.0183 KA relative to UGCAUGU"},
      {"binder": "B9", "binding signal": "0.0111 KA relative to UGCAUGU"},
      {"binder": "B10", "binding signal": "0.00752 KA relative to UGCAUGU"},
      {"binder": "B11", "binding signal": "0.00768 KA relative to UGCAUGU"},
      {"binder": "B12", "binding signal": "0.00822 KA relative to UGCAUGU"},
      {"binder": "B13", "binding signal": "0.0228 KA relative to UGCAUGU"},
      {"binder": "B14", "binding signal": "0.00681 KA relative to UGCAUGU"},
      {"binder": "B15", "binding signal": "0.00203 KA relative to UGCAUGU"},
      {"binder": "B16", "binding signal": "0.0107 KA relative to UGCAUGU"},
      {"binder": "B17", "binding signal": "0.00469 KA relative to UGCAUGU"},
      {"binder": "B18", "binding signal": "0.0171 KA relative to UGCAUGU"},
      {"binder": "B19", "binding signal": "0.00211 KA relative to UGCAUGU"},
      {"binder": "B20", "binding signal": "0.0121 KA relative to UGCAUGU"},
      {"binder": "B21", "binding signal": "0.0129 KA relative to UGCAUGU"},
      {"binder": "B22", "binding signal": "0.00859 KA relative to UGCAUGU"},
      {"binder": "B23", "binding signal": "0.0115 KA relative to UGCAUGU"},
      {"binder": "B24", "binding signal": "0.00225 KA relative to UGCAUGU"},
      {"binder": "B25", "binding signal": "0.00246 KA relative to UGCAUGU"},
      {"binder": "B26", "binding signal": "0.00311 KA relative to UGCAUGU"},
      {"binder": "B27", "binding signal": "0.00874 KA relative to UGCAUGU"},
      {"binder": "B28", "binding signal": "0.0132 KA relative to UGCAUGU"},
      {"binder": "B29", "binding signal": "0.00726 KA relative to UGCAUGU"},
      {"binder": "B30", "binding signal": "0.0054 KA relative to UGCAUGU"},
      {"binder": "B31", "binding signal": "0.00962 KA relative to UGCAUGU"}
    ]}
  ]
}
